# Several values for one entry are separate records, joined by “and”; a condition that tells them apart may be missing. Equal values may be shown once. The campaign covered roughly 420,000 compounds. About 64,000 (15%) were called active. The shares of active, inactive and inconclusive entries below differ from those in the screen. Calls follow the shape of the dose curve; as a rule, active = well fitted inhibition curve with a large enough effect; inconclusive = small, poorly fitted or top-dose-only effect; inactive = flat fitted curve, though single readings scatter. A potency beside an inconclusive call is a rough fit, not a confirmed value.
# Experiment: qHTS for Inhibitors of human tyrosyl-DNA phosphodiesterase 1 (TDP1): qHTS in cells in absence of CPT; also: nearly all actives have a fitted effect of over 55% in size
# Conditions: DT40 Tdp1-/- hTDP1 cells, no CPT, ATP luminescence, 48 h; series mostly up to 46.2 µM
# Procedure, shortened: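 Luminescent ATP content (CellTiter-Glo) served as the growth readout. Knockout chicken DT40 cells expressing human TDP1 were exposed to compounds without camptothecin for a minimum 48 hr at 37 °C.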
# Potency is read from the fitted curve at half-maximal effect; tags tell the direction and shape of the fitted curve.
row,SMILES,Potency
1,CCCN(C(=O)c1cc(S(=O)(=O)N(C)c2ccc(OCC)cc2)ccc1C)C1CCS(=O)(=O)C1 (stereo unspecified),active: 25.9 µM
2,O=C(Nc1ccc(N2CCCC2)cc1)c1ccc(Cl)cc1Cl,inactive
3,CC(C)(C)OC(=O)NCc1ccc(NC(=O)c2nc[nH]c2C(=O)NCCCCNC(=O)c2[nH]cnc2C(=O)Nc2ccc(CNC(=O)OC(C)(C)C)cc2)cc1,active: 2.91 µM
4,Cc1nc(N(C)Cc2ccccc2)c2nnn(Cc3ccccc3)c2n1,active: 18.4 µM
5,O=C(CN(c1cccc(C(F)(F)F)c1)S(=O)(=O)c1ccccc1)Nc1cccc(Cl)c1,active: 14.6 µM
6,CC(=O)NC(c1ccc([N+](=O)[O-])cc1)c1c(O)ccc2ccccc12 (stereo unspecified),"inconclusive: 7.31 µM [inhibitor, partial curve]"
7,COC(=O)c1[nH]c2ccc(C)cc2c1NC(=O)C(C)N1CCN(C2CCCCC2)CC1 (stereo unspecified),"inconclusive: 29.1 µM [inhibitor, single point]"
8,Cc1ccc(-c2nc(S(=O)(=O)c3ccc(C)cc3)c(N3CCCCC3)o2)cc1,active: 7.31 µM
9,O=C(O)C1CC=CCC1C(=O)Nc1ccc2c(c1)CCC2 (stereo unspecified),inactive
10,CCN(CC(=O)Nc1c(F)cccc1F)C(=O)/C=C/c1ccc(Br)s1,inactive
11,O=C(N=C1SC2CS(=O)(=O)CC2N1c1ccccc1)c1ccccc1 (stereo unspecified),inactive
12,COc1ccc(Cl)cc1NC(=O)Cn1nnc(C(=O)NCc2cccs2)c1N,active: 1.16 µM
13,COc1ccccc1NC(=O)COC(=O)CC(C)(C)CC1=NS(=O)(=O)c2ccccc2N1,"inconclusive: 29.1 µM [inhibitor, single point] and inconclusive: 18.4 µM [inhibitor, partial curve]"
14,COc1ccc(/C=C2/SC(=S)N(CCCC(=O)Nc3ccc(O)cc3)C2=O)cc1OC,active: 14.6 µM
15,CC(C)OC(=O)c1ccc(COC(=O)c2cnccn2)cc1,inactive
16,O=c1[nH]c2ccccc2n2c(C(F)(F)F)nnc12,inactive
17,COc1cccc(C(C)(O)c2nc(-c3ccc(Cl)cc3)cs2)c1 (stereo unspecified),"inconclusive: 16.4 µM [inhibitor, single point]"
18,COc1ccc(-c2cnc3c(NC(C)=O)cc(-c4ccccc4CN(C)C)cn23)cc1OC,"inconclusive: 18.4 µM [inhibitor, single point]"
19,NC(=S)N/N=C1\c2ccccc2-c2c(C(=O)O)cccc21,inactive
20,CN1C(=O)c2ccccc2C(C(=O)NCCCN2CCCC2=O)C1c1c[nH]c2ccccc12 (stereo unspecified),"inconclusive: 29.1 µM [inhibitor, single point]"
21,CCC(NC(=O)c1oc2ccccc2c1COC)c1ccc(OC)cc1 (stereo unspecified),"inconclusive: 29.1 µM [inhibitor, single point]"

# From PubChem BioAssay AID686978 (National Center for Advancing Translational Sciences (NCATS), 2013)
